Assay [1] relates to Epidermal growth factor receptor (Homo sapiens), P00533 [T790M]. The settings on record: at 1 µM.
Assay [2] relates to Epidermal growth factor receptor (Homo sapiens), P00533 [L858R,T790M]. The following applies: at 0.1 µM.
For assay [3] the test system is unchanged. The following applies: at 1 µM.
Assay [4] concerns the target Ephrin type-A receptor 2 (Homo sapiens) (UniProt P29317). The following applies: at 0.1 µM.
Assay [5] has the same target. The following applies: at 1 µM.
Assay [6] deals with T1, Ephrin type-A receptor 3 (Homo sapiens) (UniProt P29320).
T1 sequence (whole entry): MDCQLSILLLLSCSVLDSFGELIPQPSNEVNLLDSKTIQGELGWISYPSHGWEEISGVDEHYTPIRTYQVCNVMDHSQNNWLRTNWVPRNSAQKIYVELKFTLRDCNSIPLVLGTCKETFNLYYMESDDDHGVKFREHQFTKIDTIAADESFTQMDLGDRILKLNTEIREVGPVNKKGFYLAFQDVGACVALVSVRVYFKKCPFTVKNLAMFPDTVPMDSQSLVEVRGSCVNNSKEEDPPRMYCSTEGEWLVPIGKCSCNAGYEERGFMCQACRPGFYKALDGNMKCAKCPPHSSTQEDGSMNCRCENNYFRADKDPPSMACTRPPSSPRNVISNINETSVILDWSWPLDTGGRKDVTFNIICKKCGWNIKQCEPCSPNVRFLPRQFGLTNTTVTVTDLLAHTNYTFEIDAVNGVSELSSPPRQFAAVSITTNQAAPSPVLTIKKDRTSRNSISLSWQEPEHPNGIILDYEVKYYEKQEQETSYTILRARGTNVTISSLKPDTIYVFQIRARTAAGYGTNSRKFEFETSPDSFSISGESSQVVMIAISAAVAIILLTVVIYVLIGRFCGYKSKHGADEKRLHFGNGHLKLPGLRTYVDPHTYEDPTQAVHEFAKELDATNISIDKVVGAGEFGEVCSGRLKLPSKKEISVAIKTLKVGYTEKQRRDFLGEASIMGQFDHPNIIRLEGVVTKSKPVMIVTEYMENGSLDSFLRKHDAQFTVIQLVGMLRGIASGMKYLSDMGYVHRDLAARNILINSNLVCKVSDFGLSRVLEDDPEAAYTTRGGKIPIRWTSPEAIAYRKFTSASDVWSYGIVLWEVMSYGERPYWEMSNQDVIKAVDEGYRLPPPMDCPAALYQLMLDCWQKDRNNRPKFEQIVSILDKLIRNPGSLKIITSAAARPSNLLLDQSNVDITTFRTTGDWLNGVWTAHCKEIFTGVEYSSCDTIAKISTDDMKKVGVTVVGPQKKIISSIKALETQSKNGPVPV
The following applies: at 0.1 µM.

The target in assay [7] is T1, Ephrin type-A receptor 3 (Homo sapiens). The settings on record: at 1 µM.
Assay [8] addresses Ephrin type-A receptor 4 (Homo sapiens) (UniProt P54764). The settings on record: at 0.1 µM.
UniProt P54764, sequence (P54764 whole entry): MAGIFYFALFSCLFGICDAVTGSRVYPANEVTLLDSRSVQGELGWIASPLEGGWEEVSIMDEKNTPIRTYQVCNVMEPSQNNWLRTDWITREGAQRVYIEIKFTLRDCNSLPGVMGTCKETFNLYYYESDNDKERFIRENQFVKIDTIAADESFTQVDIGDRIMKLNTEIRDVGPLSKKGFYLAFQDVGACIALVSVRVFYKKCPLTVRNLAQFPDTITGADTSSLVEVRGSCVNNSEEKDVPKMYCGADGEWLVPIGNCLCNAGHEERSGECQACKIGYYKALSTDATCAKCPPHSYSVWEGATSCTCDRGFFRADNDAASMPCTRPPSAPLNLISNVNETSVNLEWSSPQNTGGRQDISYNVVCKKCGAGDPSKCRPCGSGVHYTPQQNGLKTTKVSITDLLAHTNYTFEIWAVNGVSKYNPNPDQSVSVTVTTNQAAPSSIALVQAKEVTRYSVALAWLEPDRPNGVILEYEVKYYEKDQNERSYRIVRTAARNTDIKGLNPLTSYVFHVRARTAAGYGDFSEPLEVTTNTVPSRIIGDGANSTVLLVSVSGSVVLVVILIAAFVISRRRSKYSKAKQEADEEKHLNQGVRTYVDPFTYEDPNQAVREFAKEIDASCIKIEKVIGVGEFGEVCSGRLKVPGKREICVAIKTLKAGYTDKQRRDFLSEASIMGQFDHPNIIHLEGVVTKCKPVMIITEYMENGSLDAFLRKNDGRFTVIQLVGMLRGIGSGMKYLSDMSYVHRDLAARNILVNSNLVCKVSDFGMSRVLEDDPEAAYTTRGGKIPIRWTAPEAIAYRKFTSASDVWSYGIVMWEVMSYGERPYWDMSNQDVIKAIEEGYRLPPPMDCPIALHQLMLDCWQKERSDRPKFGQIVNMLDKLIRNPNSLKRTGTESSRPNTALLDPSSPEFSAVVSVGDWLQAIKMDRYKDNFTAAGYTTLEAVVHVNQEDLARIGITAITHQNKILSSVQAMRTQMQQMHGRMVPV
The target is the same in assay [9]. The following applies: at 1 µM.
For assay [10], the target named is T2, Ephrin type-B receptor 2 (Homo sapiens) (UniProt P29323).
T2 sequence (whole entry): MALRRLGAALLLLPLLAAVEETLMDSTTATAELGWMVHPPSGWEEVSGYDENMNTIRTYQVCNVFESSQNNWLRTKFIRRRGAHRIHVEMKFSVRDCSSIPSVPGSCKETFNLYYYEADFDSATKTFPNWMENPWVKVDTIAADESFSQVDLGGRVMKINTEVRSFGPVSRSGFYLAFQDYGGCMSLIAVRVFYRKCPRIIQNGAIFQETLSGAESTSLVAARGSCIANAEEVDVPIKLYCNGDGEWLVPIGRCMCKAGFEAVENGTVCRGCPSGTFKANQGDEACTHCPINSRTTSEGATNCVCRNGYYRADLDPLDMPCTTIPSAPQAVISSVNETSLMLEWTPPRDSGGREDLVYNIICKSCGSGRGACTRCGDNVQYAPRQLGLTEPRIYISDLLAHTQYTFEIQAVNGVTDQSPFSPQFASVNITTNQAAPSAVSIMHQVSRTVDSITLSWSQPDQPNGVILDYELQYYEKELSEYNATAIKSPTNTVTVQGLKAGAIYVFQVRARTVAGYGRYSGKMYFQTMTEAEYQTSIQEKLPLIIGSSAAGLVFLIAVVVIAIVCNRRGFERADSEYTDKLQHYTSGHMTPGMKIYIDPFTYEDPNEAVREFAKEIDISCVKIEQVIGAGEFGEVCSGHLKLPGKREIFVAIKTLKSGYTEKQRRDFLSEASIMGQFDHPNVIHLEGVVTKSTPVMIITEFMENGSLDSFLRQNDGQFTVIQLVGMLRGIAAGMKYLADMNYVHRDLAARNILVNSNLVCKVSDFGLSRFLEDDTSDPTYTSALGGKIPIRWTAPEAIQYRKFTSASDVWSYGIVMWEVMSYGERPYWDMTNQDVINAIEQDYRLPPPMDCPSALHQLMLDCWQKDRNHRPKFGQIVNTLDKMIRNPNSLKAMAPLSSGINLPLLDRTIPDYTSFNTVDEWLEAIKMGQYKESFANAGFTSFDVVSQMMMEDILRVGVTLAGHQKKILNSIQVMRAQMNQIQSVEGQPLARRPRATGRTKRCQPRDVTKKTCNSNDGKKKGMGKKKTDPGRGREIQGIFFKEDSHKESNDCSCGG
The settings on record: at 0.1 µM.

In assay [11] the target is T2, Ephrin type-B receptor 2 (Homo sapiens). The following applies: at 1 µM.
For assay [12], the target named is T3, Ephrin type-B receptor 3 (Homo sapiens) (UniProt P54753).
T3 sequence (whole entry): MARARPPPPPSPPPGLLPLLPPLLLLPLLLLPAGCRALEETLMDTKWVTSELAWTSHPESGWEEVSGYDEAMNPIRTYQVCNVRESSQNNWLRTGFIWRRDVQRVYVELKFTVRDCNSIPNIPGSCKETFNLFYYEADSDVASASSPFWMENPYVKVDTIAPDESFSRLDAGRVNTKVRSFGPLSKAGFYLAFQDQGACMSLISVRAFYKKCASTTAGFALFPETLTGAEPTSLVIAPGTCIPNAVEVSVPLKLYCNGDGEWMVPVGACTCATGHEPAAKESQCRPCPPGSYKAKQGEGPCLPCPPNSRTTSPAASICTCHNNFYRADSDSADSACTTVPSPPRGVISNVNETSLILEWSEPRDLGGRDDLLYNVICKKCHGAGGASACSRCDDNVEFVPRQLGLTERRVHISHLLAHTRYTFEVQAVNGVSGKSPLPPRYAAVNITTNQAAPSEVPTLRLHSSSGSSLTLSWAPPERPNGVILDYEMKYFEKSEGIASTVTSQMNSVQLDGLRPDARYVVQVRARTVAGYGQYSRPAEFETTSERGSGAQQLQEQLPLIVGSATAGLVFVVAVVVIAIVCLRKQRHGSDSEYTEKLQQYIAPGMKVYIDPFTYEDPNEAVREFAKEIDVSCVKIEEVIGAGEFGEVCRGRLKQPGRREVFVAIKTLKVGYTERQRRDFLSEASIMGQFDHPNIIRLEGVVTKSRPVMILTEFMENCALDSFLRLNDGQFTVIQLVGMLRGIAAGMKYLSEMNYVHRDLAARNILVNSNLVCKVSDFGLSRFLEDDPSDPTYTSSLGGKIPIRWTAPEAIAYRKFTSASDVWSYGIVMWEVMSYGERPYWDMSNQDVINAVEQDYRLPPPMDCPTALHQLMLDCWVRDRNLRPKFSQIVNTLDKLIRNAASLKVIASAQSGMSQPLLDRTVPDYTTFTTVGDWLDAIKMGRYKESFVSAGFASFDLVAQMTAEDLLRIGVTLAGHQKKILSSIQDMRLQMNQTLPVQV
The settings on record: at 0.1 µM.

The target of assay [13] is T3, Ephrin type-B receptor 3 (Homo sapiens). The settings on record: at 1 µM.
The target in assay [14] is T4, Ephrin type-B receptor 4 (Homo sapiens) (UniProt P54760).
T4 sequence (whole entry): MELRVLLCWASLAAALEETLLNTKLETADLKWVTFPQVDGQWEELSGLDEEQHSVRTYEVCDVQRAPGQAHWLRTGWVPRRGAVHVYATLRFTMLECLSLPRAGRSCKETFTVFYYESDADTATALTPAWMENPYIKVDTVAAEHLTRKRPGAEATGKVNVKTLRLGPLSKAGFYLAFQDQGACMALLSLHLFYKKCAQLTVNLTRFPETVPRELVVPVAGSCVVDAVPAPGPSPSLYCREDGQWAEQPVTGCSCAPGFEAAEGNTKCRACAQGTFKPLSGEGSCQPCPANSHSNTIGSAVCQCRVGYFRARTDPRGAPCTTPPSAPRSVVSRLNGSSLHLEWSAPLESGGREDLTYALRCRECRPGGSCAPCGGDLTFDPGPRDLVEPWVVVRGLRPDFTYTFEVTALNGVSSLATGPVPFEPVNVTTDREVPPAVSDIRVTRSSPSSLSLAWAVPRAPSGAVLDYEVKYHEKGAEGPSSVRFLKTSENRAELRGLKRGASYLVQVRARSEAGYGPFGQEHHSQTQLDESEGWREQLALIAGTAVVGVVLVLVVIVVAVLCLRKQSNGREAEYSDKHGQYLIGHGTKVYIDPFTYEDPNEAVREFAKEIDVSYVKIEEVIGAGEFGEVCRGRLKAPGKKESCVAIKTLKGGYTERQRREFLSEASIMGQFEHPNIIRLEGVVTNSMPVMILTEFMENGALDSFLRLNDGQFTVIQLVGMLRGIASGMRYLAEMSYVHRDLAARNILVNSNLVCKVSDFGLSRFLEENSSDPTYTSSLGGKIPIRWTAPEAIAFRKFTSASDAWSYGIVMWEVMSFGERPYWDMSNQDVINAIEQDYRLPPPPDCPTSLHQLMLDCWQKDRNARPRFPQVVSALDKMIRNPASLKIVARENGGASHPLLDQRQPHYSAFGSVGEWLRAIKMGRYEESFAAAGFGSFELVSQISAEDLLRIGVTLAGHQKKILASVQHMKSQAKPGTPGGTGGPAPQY
The settings on record: at 0.1 µM.

For assay [15], the target named is T4, Ephrin type-B receptor 4 (Homo sapiens). The settings on record: at 1 µM.
Assay [16] addresses Receptor tyrosine-protein kinase erbB-2 (Homo sapiens) (UniProt P04626). The following applies: at 0.1 µM.
UniProt P04626, sequence (P04626 whole entry): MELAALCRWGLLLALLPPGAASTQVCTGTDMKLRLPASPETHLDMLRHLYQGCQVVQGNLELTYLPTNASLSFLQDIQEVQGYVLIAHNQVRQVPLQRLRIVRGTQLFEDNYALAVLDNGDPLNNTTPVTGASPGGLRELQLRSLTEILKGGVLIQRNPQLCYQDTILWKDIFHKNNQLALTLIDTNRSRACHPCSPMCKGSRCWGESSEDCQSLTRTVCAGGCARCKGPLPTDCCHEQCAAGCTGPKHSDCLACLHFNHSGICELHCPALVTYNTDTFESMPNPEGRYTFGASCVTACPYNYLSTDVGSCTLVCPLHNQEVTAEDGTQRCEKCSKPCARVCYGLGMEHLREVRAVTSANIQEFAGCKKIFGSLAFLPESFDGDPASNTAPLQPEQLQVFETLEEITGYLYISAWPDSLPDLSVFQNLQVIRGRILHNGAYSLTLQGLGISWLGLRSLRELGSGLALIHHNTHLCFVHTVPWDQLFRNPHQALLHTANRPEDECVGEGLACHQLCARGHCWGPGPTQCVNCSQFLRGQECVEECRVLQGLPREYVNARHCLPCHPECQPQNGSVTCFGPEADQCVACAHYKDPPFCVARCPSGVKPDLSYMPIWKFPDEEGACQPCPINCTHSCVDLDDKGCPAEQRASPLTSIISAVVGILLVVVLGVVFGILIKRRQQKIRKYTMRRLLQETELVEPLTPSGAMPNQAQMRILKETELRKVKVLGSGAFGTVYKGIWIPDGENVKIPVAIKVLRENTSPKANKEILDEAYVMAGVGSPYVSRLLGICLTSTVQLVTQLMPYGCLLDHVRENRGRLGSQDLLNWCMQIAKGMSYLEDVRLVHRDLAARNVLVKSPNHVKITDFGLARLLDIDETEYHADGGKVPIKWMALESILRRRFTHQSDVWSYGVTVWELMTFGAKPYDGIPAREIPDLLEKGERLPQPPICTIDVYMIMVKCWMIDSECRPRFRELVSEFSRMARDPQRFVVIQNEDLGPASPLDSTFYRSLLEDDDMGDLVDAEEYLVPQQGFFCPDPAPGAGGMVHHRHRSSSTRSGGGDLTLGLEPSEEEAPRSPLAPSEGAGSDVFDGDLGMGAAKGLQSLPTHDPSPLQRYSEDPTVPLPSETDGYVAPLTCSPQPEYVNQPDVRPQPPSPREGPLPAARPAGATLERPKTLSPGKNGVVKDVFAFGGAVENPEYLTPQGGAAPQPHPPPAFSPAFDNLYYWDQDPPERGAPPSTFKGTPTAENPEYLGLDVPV
Assay [17] shares this target. The following applies: at 1 µM.
Assay [18] concerns the target Receptor tyrosine-protein kinase erbB-4 (Homo sapiens) (UniProt Q15303). The following applies: at 0.1 µM.
UniProt Q15303, sequence (Q15303 whole entry): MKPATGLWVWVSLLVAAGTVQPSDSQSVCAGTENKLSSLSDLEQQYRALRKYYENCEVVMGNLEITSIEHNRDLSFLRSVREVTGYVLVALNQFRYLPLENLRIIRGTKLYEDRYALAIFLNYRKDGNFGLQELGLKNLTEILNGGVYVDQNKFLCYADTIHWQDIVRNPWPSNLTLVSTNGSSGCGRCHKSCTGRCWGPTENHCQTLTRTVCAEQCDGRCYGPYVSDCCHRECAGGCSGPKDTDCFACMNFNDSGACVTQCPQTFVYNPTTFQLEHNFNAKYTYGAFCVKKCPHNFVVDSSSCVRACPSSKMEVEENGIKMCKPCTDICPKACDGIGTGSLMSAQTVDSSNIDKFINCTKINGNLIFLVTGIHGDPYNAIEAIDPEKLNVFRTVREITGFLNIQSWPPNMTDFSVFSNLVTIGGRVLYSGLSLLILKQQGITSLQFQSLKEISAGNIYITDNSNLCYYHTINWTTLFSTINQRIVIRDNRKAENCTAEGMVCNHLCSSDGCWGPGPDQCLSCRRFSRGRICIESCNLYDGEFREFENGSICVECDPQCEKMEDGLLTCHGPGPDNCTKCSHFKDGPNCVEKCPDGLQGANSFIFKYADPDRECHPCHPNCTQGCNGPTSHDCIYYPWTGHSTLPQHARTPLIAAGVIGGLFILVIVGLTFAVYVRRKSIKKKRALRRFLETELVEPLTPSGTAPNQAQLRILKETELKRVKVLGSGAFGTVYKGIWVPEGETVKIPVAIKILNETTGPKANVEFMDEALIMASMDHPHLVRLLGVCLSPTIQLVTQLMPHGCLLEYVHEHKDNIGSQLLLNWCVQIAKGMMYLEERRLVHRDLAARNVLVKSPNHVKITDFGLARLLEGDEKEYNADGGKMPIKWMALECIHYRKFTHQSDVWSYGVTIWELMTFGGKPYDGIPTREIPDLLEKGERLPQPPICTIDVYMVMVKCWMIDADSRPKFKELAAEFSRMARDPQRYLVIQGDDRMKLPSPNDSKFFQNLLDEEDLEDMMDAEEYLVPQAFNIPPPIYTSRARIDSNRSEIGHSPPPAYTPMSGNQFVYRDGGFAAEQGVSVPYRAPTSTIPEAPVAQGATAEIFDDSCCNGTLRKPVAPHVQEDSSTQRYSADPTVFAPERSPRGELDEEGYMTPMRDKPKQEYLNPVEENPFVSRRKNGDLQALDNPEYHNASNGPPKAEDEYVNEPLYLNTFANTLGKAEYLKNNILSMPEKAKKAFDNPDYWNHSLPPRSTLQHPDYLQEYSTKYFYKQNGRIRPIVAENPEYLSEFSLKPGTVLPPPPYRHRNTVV
Assay [19] shares this target. The settings on record: at 1 µM.
The target of assay [20] is Tyrosine-protein kinase Fer (Homo sapiens) (UniProt P16591). The following applies: at 0.1 µM.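 Further: reported figures are averaged percent inhibition of FER.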
UniProt P16591, sequence (P16591 whole entry, looked up): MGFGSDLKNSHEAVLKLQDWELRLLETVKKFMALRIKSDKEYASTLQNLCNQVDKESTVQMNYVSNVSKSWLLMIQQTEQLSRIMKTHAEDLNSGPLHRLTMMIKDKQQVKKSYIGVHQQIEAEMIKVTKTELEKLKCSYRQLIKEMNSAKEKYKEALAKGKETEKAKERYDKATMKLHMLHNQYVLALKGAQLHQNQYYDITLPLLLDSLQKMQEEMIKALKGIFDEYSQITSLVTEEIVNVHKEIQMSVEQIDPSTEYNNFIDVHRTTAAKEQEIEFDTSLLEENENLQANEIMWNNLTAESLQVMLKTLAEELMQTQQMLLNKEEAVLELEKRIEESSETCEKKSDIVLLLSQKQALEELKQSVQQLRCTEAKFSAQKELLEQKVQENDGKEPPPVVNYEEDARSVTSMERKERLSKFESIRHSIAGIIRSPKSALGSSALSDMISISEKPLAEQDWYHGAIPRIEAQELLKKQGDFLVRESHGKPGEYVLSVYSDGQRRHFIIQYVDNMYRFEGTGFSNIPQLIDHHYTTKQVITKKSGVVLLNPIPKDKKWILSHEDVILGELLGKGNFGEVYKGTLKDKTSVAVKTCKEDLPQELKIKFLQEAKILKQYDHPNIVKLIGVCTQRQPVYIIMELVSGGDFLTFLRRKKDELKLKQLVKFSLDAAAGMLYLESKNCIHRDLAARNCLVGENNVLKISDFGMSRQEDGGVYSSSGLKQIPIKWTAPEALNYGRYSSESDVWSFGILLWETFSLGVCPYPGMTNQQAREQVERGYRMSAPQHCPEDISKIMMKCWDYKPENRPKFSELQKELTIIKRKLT

For some assays here: This list holds what a sample rich in strong results left over. The list shows a part of the results, in another mix than the full data.

As for `Fc1ccc(Oc2nccc(-c3c(-c4ccc(F)cc4)ncn3C3CCNCC3)n2)cc1`, the inhibition (commonly the relative decrease from the control value, in per cent) in assay [1] is 2.34%; in assay [2], 4.69%; in assay [3], 2.21%; in assay [4], -1.1%; in assay [5], -1.71%; in [6], -2.65%. Also, the inhibition in [7] was -0.09%; in [8], 6.49%; in assay [9], 8.07%; in [10], 7%; in assay [11] it was 5.49%; in assay [12] it was -0.03%. Besides, the inhibition in assay [13] is -1.49%; in assay [14], 1.62%; in assay [15], -1.46%; in assay [16], -1.05%; in assay [17] it was 1.8%; in assay [18], -0.45%. Further, the inhibition in assay [19] was determined as 4.24%; in assay [20], 2.06%.

With `O=C(O)c1ccc(Oc2nccc(-c3c(-c4ccc(F)cc4)ncn3C3CCNCC3)n2)cc1`, the inhibition in assay [1] was 2.74%; in [2] it was -0.31%; in assay [3] it was 2.26%; in assay [4], 2.07%; in assay [5], 1.28%; in assay [6], 1.21%. Further, the inhibition in assay [7] was 2.84%; in assay [9], 8.32%; in assay [10] it was 8.65%; in assay [11], 4.11%; in assay [12] it was 2.77%; in [13] it was 1.78%. Also, the inhibition was determined as 3.71% in [14]; 3.04% in assay [15]; 1.34% in assay [16]; 1.62% in assay [17]; 5.11% in [18]; 7.71% in assay [19]. In addition, the inhibition in assay [20] was -2.55%.

Regarding `CS(=O)(=O)c1ccc(Oc2nccc(-c3c(-c4ccc(F)cc4)ncn3C3CCNCC3)n2)cc1`, the inhibition in assay [1] is 3.13%; in [2], 2.94%; in assay [3], -1.42%; in [4] it was 1.96%; in [5] it was 0.6%; in assay [6] it was 2.49%. Moreover, the inhibition in assay [7] was found to be 2.77%; in [8] it was 7.19%; in assay [9], 10.1%; in assay [10] it was 6.94%; in assay [11], 8.79%; in [12] it was 4.01%. In addition, the inhibition was 4.79% in assay [13]; -0.15% in assay [14]; 2.72% in assay [15]; 3.64% in assay [16]; 5.1% in assay [17]; 8.15% in assay [18]. The inhibition came to 12% in assay [19] and 2.29% in assay [20].

(Values after ChEMBL document CHEMBL1961873, “Compounds: GSK PKIS; Assays: Nanosyn kinase panel” (2012).)
